Results: patent US10000498B2, “Selective proton coupled folate transporter and folate receptor, and GARFTase inhibitor compounds and methods of using the same” (Duquesne University of the Holy Spirit, priority 2008, dated 2018)

Tested on: R2-hPCFT#4 cells (hPCFT-expressing R2 CHO)
Conditions: comparing growth inhibition of R2-hPCFT#4 and pC43-10 cells

Nc1nc(N)c2nc(CNc3ccc(C(=O)N[C@@H](CCCNC(=O)c4ccccc4C(=O)O)C(=O)O)cc3)cnc2n1 [PT523]
Selectivity between hRFC and hPCFT: completely selective in its effects toward hRFC over hPCFT
